Screen size: about 46,000 compounds; about 60 (0.1%) were called active. Not shown: some 3% with an inconclusive outcome. Calls come from the whole dose curve; as a rule, active = well fitted inhibition curve with a large enough effect; inconclusive = small, poorly fitted or top-dose-only effect; inactive = no such curve, though single readings can be large or run the other way. The list shows a part of the results.
Experiment: Primary qHTS assay for Inhibitors of ovarian cancer metastasis using an organotypic tumor microenvironment (TME) model.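 For activity change, negative = inhibition: plate controls were DMSO wells for no effect and tomatine positive control wells for full effect.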 Note: nearly all actives have a fitted effect of over 65% in size.
Conditions: SKOV3ip1-GFP adhesion/invasion on 3D omental model, fluorescence; series mostly up to 45.8 µM; activity change, negative = inhibition: at the top concentration
In short: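 Primary human omental fibroblast/mesothelial 3D culture pre-formed 48 h. SKOV3ip1-GFP cells added with compounds (0.36-46 umol/L), incubated 2 h RT/16 h 37 C, fixed; GFP cells quantified at 488/509 nm.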

Activity change, negative = inhibition, inactive:
COc1ccc(NCc2cc3ccc(OC)cc3n(CC(=O)Nc3ccc(C)c(C)c3)c2=O)cc1 -15.7%
Cc1cccc(N2C(=O)CSC23C(=O)N(C)c2ccccc23)c1 (stereo not drawn) 0.728%
Cc1cccc(OCC(=O)Nc2c(C(=O)Nc3ccc(F)cc3)oc3ccccc23)c1 -3.56%
COc1ccc(S(=O)(=O)Nc2cccc(-c3ccc(N4CCCCCC4)nn3)c2)cc1OC 1.41%
O=C(CSc1ccnc(=O)[nH]1)NCc1ccc(F)cc1 -2.15%
COc1cccc(C(c2sc3nc(-c4ccco4)nn3c2O)N2CCC(C)CC2)c1 (stereo not drawn) 15.2%
CCC1CN(C(=O)NCc2ccc(F)cc2)c2cc(C)ccc2O1 (stereo not drawn) 10.4%
CCc1ccc(NC(=O)C2CCCN(S(=O)(=O)c3ccc4[nH]c(=O)ccc4c3)C2)cc1 (stereo not drawn) -27.6%
COC(=O)c1sccc1S(=O)(=O)N1CCN(c2cccc(C)c2)C(C)C1 (stereo not drawn) 4.08%
COc1ccc(OC)c(CCNC(=O)c2ccc3c(c2)N(Cc2ccccc2)CCS3)c1 19.5%
CN1C(=O)c2ccccc2Sc2ccc(NC(=O)Cc3ccc(Cl)cc3)cc21 -37%
Cc1ccc(-n2cc(-c3ccccc3)c3c(N4CCC(C)CC4)ncnc32)cc1Cl -12%
CCCCc1ccc(NC(=O)Cn2cnc3c(oc4ccccc43)c2=O)cc1 -8.67%
O=C(NCc1ccc(Cl)cc1)c1ccc2c(c1)nnn2C1CCCC1 -7.45%
CCOC(=O)c1cccc(NC(=O)C2COc3ccc(OC)cc3C2)c1 (stereo not drawn) 2.25%
N=c1ccn2c(n1)O[C@H]1[C@@H](O)[C@@H](CO)O[C@H]12 16.6%
O=C(NCc1ccccc1)C1CCN(c2ncnc3c2nc2n3CCCCC2)CC1 -5.19%
CCOC(=O)c1cnc2c(C)cc(C)cc2c1NCCN1CCOCC1 3.9%
Cc1nc2nc(NCc3ccccc3Cl)[nH]n2c(=O)c1Cc1ccccc1 3.49%
Cc1ccc(C)c(OCc2nc3ccccc3n2C)c1 -9.1%
Cc1ccccc1NC(=O)CSc1nc2c(oc3ccccc32)c(=O)n1Cc1ccco1 -23%
CCCSC1=NC2(CCN(C(=O)NC3CCCCC3)CC2)N=C1c1ccc(C)cc1 5.72%

outcome, inactive:
CC(=O)Nc1ccc(S(=O)(=O)NCCc2csc3nc(-c4ccc(Cl)cc4)nn23)cc1
CCOC(=O)C1CCN(C(=O)Cn2nc(C)n3c(cc4c(OC)cccc43)c2=O)CC1
Cc1cccc(N(C)S(=O)(=O)c2nnc(NC(=O)C(C)Oc3ccccc3)s2)c1 (stereo not drawn)
COc1ccc(C)cc1NC(=O)CSc1nc(=O)n(Cc2ccco2)c2c1CCC2
Cc1ccc(CCNC(=O)C2CC(=O)N(CCc3ccc(C)cc3)C2)cc1 (stereo not drawn)
O=C(Nc1ccccc1OCc1cc(=O)n2ccccc2n1)Nc1ccccc1C(F)(F)F
